SMILES strings stand for the structures. The campaign covered roughly 150,000 compounds. About 540 (0.36%) showed an effect of 50% or more. Some of the results follow.

Results on 87 compounds are retold here after ChEMBL document CHEMBL4888484, “Replenishing the malaria drug discovery pipeline: Screening and hit evaluation of the MMV Hit Generation Library 1 (HGL1) against asexual blood stage Plasmodium falciparum ,using a nano luciferase reporter read-out” (2022).

The subject of the experiment is Plasmodium falciparum. The experiment is described as follows: Primary screen in NF54 nanoGlo assay, in single point, at 2uM, 72h; a lower Z score goes with more inhibition. It counts as functional, Erythrocyte. The note with it: timepoint 72 hour.
What is called % Inhibition is the drop in the measured response relative to a control, in per cent. As for `CCCCN(C(=O)[C@@H]1CCN1)C1CCCCCC1`, the “% Inhibition” value is on record as -2% and the Z score is on record as 0.47.
The matching figures for `Cc1ccc2sc(CN(C)c3ccc(C(=O)N4CCOCC4)cc3C)nc2c1`: -5% and 0.75.
The matching figures for `O=C1NC2(CCN(S(=O)(=O)c3ccc(F)c(Cl)c3)CC2)N=C1c1ccccc1`: -5% and 0.58.
Consider `Cc1cccc([C@H]2NCCc3sccc32)n1`, for which the “% Inhibition” value worked out at 46% and the Z score was -5.16.
The matching figures for `COCCC(C)NC(=O)N(C)CC1CCCCC1O` (centres undefined): -3% and 0.35.
The matching figures for `CC1(C)COCCN1CCNS(=O)(=O)C1C[C@@H]2CC[C@H]1C2` (some centres undefined): -11% and 2.04.
The matching figures for `CNC(=O)c1cccc(Nc2c(Oc3ccc(C)c(C)c3)cnn(-c3cccc(Cl)c3)c2=O)c1`: -11% and 1.26.
As to `COC(=O)c1c(NC(C)=O)c2cc(NCc3ccccc3F)cnc2n1CCc1ccc(OC)cc1`, the “% Inhibition” value is -14% and the Z score is on record as 1.59.
The matching figures for `CCOCC(=O)OCC(=O)NC(=O)Cc1ccccc1`: -3% and 0.33.
The matching figures for `Cc1noc(C)c1N(C)CCCS(C)(=O)=O`: 1% and -0.18.
The matching figures for `CCCC1(COC)CCCN1C(=O)NC1CCc2nc(CC)nn2C1` (centres undefined): -9% and 0.94.
For the compound `COc1ccc(S(=O)(=O)N2CCOCC2)cc1NC(=O)c1cc(C)sc1C`, the “% Inhibition” value is -6% and the Z score stood at 0.82.
The matching figures for `Cc1nonc1CC(=O)NC(Cc1ccncc1)[C@H]1C[C@@H](O)C1` (some centres undefined): 2% and -0.3.
The matching figures for `CC(C)C(NC(=O)c1ccccc1Cl)C(C)C`: 6% and -0.88.
The matching figures for `O=C1C[C@H]2CC[C@@H](CN1)N2C(=O)CCc1ccsc1`: -4% and 0.8.
Consider `CN(Cc1cnc(NCc2ccccc2)nc1)Cc1nccs1`, for which the “% Inhibition” value is listed as 16% and the Z score is -2.95.
The matching figures for `Cc1ccc(CN2CCC[C@H](OCc3noc(C)n3)C2)nc1`: -4% and 0.58.
As to `COCc1nc(-c2ccc(OC3CN(Cc4ccc(C(F)(F)F)cc4)C3)cc2)no1`, the “% Inhibition” value is recorded as -14% and the Z score worked out at 2.58.
The matching figures for `CCN1CCN(c2cc([C@H]3CCOC3)nc(N3CC(O)C3)n2)CC1=O`: -5% and 0.64.
The matching figures for `CC(C)(C)c1n[nH]cc1C(=O)NCc1ccncc1Br`: 15% and -1.95.
The matching figures for `Cc1ncc(CN(C(C)C)C(C)C)s1`: -12% and 1.35.
On to `O=C(N[C@H]1CCOC1)c1cn(CC2CCCCC2)nn1`, for which the “% Inhibition” value is 2% and the Z score was -0.48.
The matching figures for `CC(C)Cn1cncc1CNc1ncc(Cl)cn1`: 0% and 0.06.
On to `Cc1cc(=O)n2nc(N3CCN(C(=O)c4ccccc4)CC3)nc2[nH]1`, for which the “% Inhibition” value is -5% and the Z score worked out at 0.92.
The matching figures for `CCCn1ccc(NC(=O)NC(C)(C)C)n1`: -10% and 1.45.
In the case of `Cc1nc(C)c(C)c(N[C@H]2CCC[C@H]2C(N)=O)n1`, the “% Inhibition” value is -2% and the Z score amounted to 0.33.
Consider `COC[C@H]1CCCN(C(=O)c2occc2-c2ccc(F)cc2)C1`, for which the “% Inhibition” value is listed as 1% and the Z score was -0.17.
The matching figures for `Cc1cc2c(Cc3ccc(Br)cc3)n[nH]c(=O)c2c(=O)[nH]1`: -15% and 1.89.
As to `O=C(NCc1ccncc1)C1Cc2cc(C(F)(F)F)ccc2N2CCN(c3ccccc3)CC12` (centres undefined), the “% Inhibition” value came out at 2% and the Z score is recorded as -0.19.
The matching figures for `O=C1Nc2ccc(O)cc2O[C@H]1Cc1ccccc1Cl`: 0% and -0.03.
The matching figures for `O=C(Nc1ccc(Cl)cc1)N[C@H]1CCC12CCOCC2`: 17% and -2.21.
The matching figures for `C[C@@H]1CN(Cc2cccc(C(=O)O)c2)CCN(CC(F)(F)F)C1`: -5% and 0.66.
`Cc1ccnn1-c1ccccc1NC(=O)Nc1ccn(CCC#N)n1`: the “% Inhibition” value is listed as -13% and the Z score amounted to 1.8.
For the compound `O=C(c1cnc2ccccc2n1)N1CCC(C(=O)N2CCCCCC2)CC1`, the “% Inhibition” value is reported as -8% and the Z score is listed as 0.97.
The matching figures for `CC[C@@H](C(=O)O)N(C)Cc1cc(Cl)ccc1F`: -8% and 1.06.
As for `O=C(O)c1cc(-c2c(-c3ccccc3)nn3ccccc23)n[nH]c1=O`, the “% Inhibition” value was -5% and the Z score is on record as 0.8.
The matching figures for `O=C(N[C@@H](CC1CC1)C(=O)O)c1csc(C(F)(F)F)c1`: -7% and 1.41.
As for `CC1(C)CC(NC(=O)COc2ccc(Cl)cc2)CC(C)(CNC(=O)COc2ccc(Cl)cc2)C1` (centres undefined), the “% Inhibition” value is listed as -9% and the Z score was 1.66.
The matching figures for `COc1ccccc1CNC(=O)CN1C(=O)[C@@H]2CCCCN2c2ccc(C(=O)N3CCCC3)cc21`: -2% and 0.17.
The matching figures for `O=C(NCc1ccc(OCc2cccnc2)cc1)c1cc(Br)ccc1F`: -6% and 1.23.
The matching figures for `Cc1ccc(F)cc1CN(C)c1nncn1C`: 12% and -1.11.
As for `CC1=CC(C)(C)N=CN1c1cccc(C)c1`, the “% Inhibition” value is listed as -5% and the Z score is given as 0.56.
The matching figures for `Cc1nonc1N1CCN(c2cc([C@H]3CCOC3)ncn2)CC1`: -11% and 1.08.
For the compound `CCC[C@@H](C#N)NC(=O)c1ccc2ncnn2c1`, the “% Inhibition” value is recorded as -14% and the Z score was 2.29.
The matching figures for `CCN(CC)CC#CC1(OCCC#N)CCCCC1`: 2% and -0.25.
On to `CC1(C)C(=O)NCCN1C(=O)C1=CCCCO1`, for which the “% Inhibition” value is recorded as -5% and the Z score turned out to be 0.5.
With `Cc1noc(C[C@H]2CCOC3(CCN(C(=O)CCCc4ccccc4)CC3)C2)n1`, the “% Inhibition” value is on record as -12% and the Z score is recorded as 1.7.
The matching figures for `Cc1cc(-c2c(N3CCCC3)cn[nH]c2=O)ccc1O`: 8% and -1.05.
The matching figures for `O=C(Cc1cccnc1)N1CC[C@H](c2cccc(C(F)(F)F)c2)C1`: -1% and 0.16.
As for `CC(C)c1noc([C@@H]2CCCCN2Cc2ncccc2C(=O)O)n1`, the “% Inhibition” value turned out to be 2% and the Z score is -0.25.
The matching figures for `Cc1nn(-c2ccc(C(=O)NC3CCCCC3)cc2)c2c1C(=O)CCC2`: -11% and 1.42.
The matching figures for `CNC(=O)CCOC(=O)c1cc(Cl)c(Cl)[nH]1`: -17% and 2.14.
The matching figures for `CCOc1ccc(-c2cc3n(n2)CCCN(C(=O)NCCOC)C3)cc1`: 8% and -0.86.
Take `CC1=C(C(=O)Nc2nnc3cc(C)ccn23)CCC1`: the “% Inhibition” value is on record as -6% and the Z score came to 1.04.
The matching figures for `NC(=O)c1cnc2n1CCN(C(=O)c1ccc3[nH]c4c(c3c1)CCCC4)C2`: -8% and 0.7.
The matching figures for `C[C@H](NC(=O)c1ccc[nH]1)C(C)(F)F`: -1% and 0.11.
The matching figures for `Cc1nc(NC(=O)Cn2nc(C)n(C)c2=O)sc1Cc1ccccc1`: 11% and -1.1.
Consider `CC1CN(C(=O)c2ccncc2F)CC(C)[S+]1[O-]` (centres undefined), for which the “% Inhibition” value is -5% and the Z score was found to be 0.97.
Turning to `COc1cnc(NCc2cc3c(nc2OC)CN(C2CCCC2)C3=O)nc1`, the “% Inhibition” value was -13% and the Z score came out at 2.52.
The matching figures for `CCCc1cc(C(=O)N2CCC[C@H](N)C2)sc1C`: -15% and 1.8.
For `O=C(CC1CCCC1)Nc1cccc2ccccc12`, the “% Inhibition” value came out at 33% and the Z score is given as -3.78.
The matching figures for `O=C(C1CCC1)N1CCCc2cc(S(=O)(=O)Nc3ccccc3)ccc21`: -8% and 1.44.
The matching figures for `C[C@@H](C(=O)Nc1ccc(F)cc1)n1nc(-c2ccccc2)c2cc(Cl)ccc21`: -4% and 0.78.
The matching figures for `COc1cc(OC)nc(N(C)[C@H]2C[C@@H](OC)C2)n1`: -10% and 1.02.
Turning to `COc1ccc(C(=O)NC[C@H](O)c2ccc3c(c2)CCN3C)c(OC)c1OC`, the “% Inhibition” value was -12% and the Z score worked out at 1.54.
The matching figures for `CCOc1ccccc1CNc1cccc2c1CCNC2=O`: 0% and 0.
As to `Cc1cc2ccccc2n1CC(=O)Nc1cccc(N2C(=O)CN(C)C2=O)c1`, the “% Inhibition” value is -4% and the Z score is recorded as 0.75.
The matching figures for `COc1ccc2c(N)n(C(=O)c3cc(C)no3)nc2c1`: -7% and 1.06.
The matching figures for `COc1cc(NC(=O)[C@@H]2CC(=O)N(C)c3ccccc32)cc(-n2cnnn2)c1`: -9% and 1.59.
The matching figures for `CCCc1cnc(C)nc1N1C[C@@H](CN(C)CC)[C@@H](CO)C1`: 4% and -0.62.
`Cn1nccc1-c1ccc(CNC(=O)c2ccccn2)cn1`: the “% Inhibition” value was determined as 18% and the Z score is -2.03.
As for `C[C@H](NCc1nc2ccccc2o1)c1ccc(S(C)(=O)=O)c(F)c1`, the “% Inhibition” value is -8% and the Z score turned out to be 1.09.
The matching figures for `CCCN1CCC(N2CCC[C@H](C(=O)c3cccc(OC(C)C)c3)C2)CC1`: 2% and -0.26.
Consider `COc1cc2c(cc1OC)C(=O)N1CCC[C@H]1C(=O)N2`, for which the “% Inhibition” value was determined as 0% and the Z score is -0.09.
The matching figures for `Cc1ccc(N(C)S(=O)(=O)c2c(-c3ccccc3)csc2C(=O)NCc2ccccn2)cc1C`: -9% and 1.12.
The matching figures for `Cc1c(-c2nnc(-c3ccc(F)cc3)o2)nnn1-c1nonc1N`: -3% and 0.38.
The matching figures for `COc1cccc(-c2ncnc3sc(C(=O)O)c(C)c23)c1`: 1% and -0.08.
As to `Cc1cc(O)nc(C(C)N2CCOC(C(C)(C)C)C2)n1` (centres undefined), the “% Inhibition” value was determined as 7% and the Z score is listed as -1.39.
As to `CCc1cc(-c2nc(C[C@H]3CCCO3)no2)n(C)n1`, the “% Inhibition” value was -14% and the Z score came out at 1.98.
Take `CCCNC(=O)C1CCN(S(=O)(=O)c2ccc3c(c2)CCC3)CC1`: the “% Inhibition” value is -5% and the Z score came out at 0.67.
The matching figures for `O=C(CC1=CCCCC1)NCCN1C(=O)CCCC1=O`: 9% and -1.25.
On to `O=C(Nc1cc2c(nn1)CCC2)N1CC[C@H](Nc2ncccn2)C1`, for which the “% Inhibition” value is listed as -11% and the Z score was determined as 1.54.
In the case of `O=C(c1ccoc1)N1CC[C@H](Oc2cccc3cccnc23)C1`, the “% Inhibition” value is reported as -16% and the Z score worked out at 3.12.
The matching figures for `CC(NC(=O)N1CCC[C@H]1COc1ccc(F)cc1)c1ccc[nH]1` (some centres undefined): -14% and 1.69.
The matching figures for `CC(=O)c1ccc(CNC(=O)CC[C@H]2CCCO2)nc1C`: -1% and 0.16.
The matching figures for `C[C@H]1CCCN(C(=O)c2cccc(S(=O)(=O)NC3CC3)c2)C1`: -12% and 1.23.
Consider `Cc1nn(CCN2CCCCC2)c(C)c1S(=O)(=O)N1CCc2ccccc21`, for which the “% Inhibition” value is on record as -2% and the Z score is given as 0.37.
